# Reference: the RNAGym collection of RNA variant scans (doi:10.1093/nar/gkz1192)
# Read counts are not given, so values of variants with three or more changes are uncertain.
# B1: CPEB3 Ribozyme (parent)
# chain: UAACAGGGGGCCACAGCAGAAGCGUUCACGUCGCAGCCCCUGUCAGAUUCUGGUGAAUCUGCGAAUUCUGCUGUAUAUCUC
# Variants of: B1
# Assay: self-cleavage, relative activity (ratio to wild type); higher = more cleavage; in vitro, sequencing
# Outline: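 Relative activity was defined as the cleaved/total read fraction for a variant divided by the same fraction for the unmutated ribozyme. CPEB3 self-cleaving ribozyme libraries were made by rounds of error-prone PCR, barcoded, and transcribed in vitro with T7 RNA polymerase for 5 hours at 37°C, and cleavage ran through transcription plus a 15 min DNase I step before EDTA. Illumina sequencing of template-switched reverse transcripts gave the reads, and DNA sequencing mapped the barcodes. Averages come from three batches, using variants with at least 5 reads.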
row,Variant,self-cleavage
1,G24U U58C A77G,0.12
2,G24U U60C U72C U80C,0.08
3,U25A A28G A45G G46A,0.14
4,U25A A28G A45G U58A,0.04
5,U25A A28G A45U A64U A77G U80C,0.11
6,U25A A28G A47G,0.42
7,U25A A28G A47G U69C,0.15
8,U25A A28G A75G,0.49
9,U25A A28G U41G U78C,0.2
10,U25A A28G U51A A57G U60C A65G,0.16
11,U25A A28U A45G U76C,0.04
12,U25A A28U C39U A45C U48G U51A G55U,0.1
13,U25A A28U G61C,0.16
14,U25A A28U U41A,0.4
15,U25A A35C U48C U66A,0.16
16,U25A A35G A45U U48C A64U U76A,0.06
17,U25A A35G A77U U78A,0.14
18,U25A A35G C62U,0.08
19,U25A A35G G42C A45U U54C,0.21
20,U25A A35G G61A,0.28
21,U25A A35G U48C U80C,0.24

row,Variant,self-cleavage
1,U25A A35G U69C,0.07
2,U25A A35U U66C,0.16
3,U25A A45G A47U A56G U69C,0.06
4,U25A A45G A56G U78C,0.05
5,U25A A45G A57G U67A,0.05
6,U25A A45G U58A U69C G73A U80C,0.14
7,U25A A45U A77G,0.22
8,U25A A45U U72G A77G,0.08
9,U25A A47C U58G,0.2
10,U25A A47G A57U,0.15
11,U25A A47G U74C,0.27
12,U25A A56U A64G,0.17
13,U25A A64G A75G,0.36
14,U25A A64G U69C U80C,0.12
15,U25A A64G U72C,0.2
16,U25A A64U U67C U72C U74C U78C,0
17,U25A C29G C38U A45G,0.09
18,U25A C29G U80C,0.6
19,U25A C32U A56G U60A U72C,0.13
20,U25A C32U G46A A64C A65U,0.09
21,U25A C32U U78G,0.06

row,Variant,self-cleavage
1,U25A C34G U43C C62G A65G U72A,0.03
2,U25A C38A A56U,0.24
3,U25A C39G U74G,0.29
4,U25A C39U U72C,0.24
5,U25A C40U U48A U67C,0.11
6,U25A C40U U54C A56C U67C,0.1
7,U25A C44U A64U C71U,0.09
8,U25A C50A U51A,0.12
9,U25A C50A U66C,0.14
10,U25A C62U A65U U76C,0.11
11,U25A C79U U80G,0.16
12,U25A G30A U41C U43C G52A,0.16
13,U25A G30A U67C A75U,0.11
14,U25A G36A U41C,0.13
15,U25A G36C U54G,0.29
16,U25A G36U U41A G70U,0.13
17,U25A G42A U78A U80C,0.29
18,U25A G42C U72C,0.1
19,U25A G46A A47C,0.06
20,U25A G55C A64G,0.14
21,U25A G63A A64G A65G U78G,0.06

row,Variant,self-cleavage
1,U25A G63A A65G U69A,0.08
2,U25A G63A U67A U69C,0.06
3,U25A U26A A56G A65G,0.08
4,U25A U26A A65G U78A,0.15
5,U25A U26A U31C U49C U66C,0.09
6,U25A U26A U31G U66G A75U,0.17
7,U25A U26A U43G U72A A75U,0.2
8,U25A U26C A28G U48G,0.26
9,U25A U26C A28G U69A,0.1
10,U25A U26C A35G A57G U67A U74C U80G,0.02
11,U25A U26C A47G A57U G63U A64U,0.08
12,U25A U26C A56U,0.41
13,U25A U26C A64G,0.21
14,U25A U26C U43C U78A U80A,0.07
15,U25A U26C U54C U58C,0.09
16,U25A U26C U58A U80C,0.32
17,U25A U26C U80C,0.13
18,U25A U26G C34A A45G U66C,0.12
19,U25A U31A A57G,0.16
20,U25A U31A G42A U43C U78A,0.07
